PMC3320765 (Biochemistry, 2012)

Legend:
6His-UBN1(41–119) = 6His-UBN1(41–119) (human, UniProt Q9NPG3 41-119); experiment: AUC
6His-UBN1(41–175) = 6His-UBN1(41–175) (human, UniProt Q9NPG3 41-175); experiment: AUC
Chain of 6His-UBN1(41–175) (Q9NPG3 41-175): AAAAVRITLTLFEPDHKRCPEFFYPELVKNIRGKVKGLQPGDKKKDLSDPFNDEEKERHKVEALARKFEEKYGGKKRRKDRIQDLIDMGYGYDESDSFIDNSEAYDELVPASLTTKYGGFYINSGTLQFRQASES

Chain of 6His-UBN1(41–119) (Q9NPG3 41-119): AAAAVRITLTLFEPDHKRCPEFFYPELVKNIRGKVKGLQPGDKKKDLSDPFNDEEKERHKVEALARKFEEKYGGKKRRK

B1: HIRA([…]), untagged (HIRA WD repeats) (domain or fragment)
chain: not shown
stoichiometry N (6His-UBN1(41–119)): 1 | stoichiometry N (6His-UBN1(41–175)): 1
